Laboratory results reported in FireProtDB (doi:10.1016/s0022-2836(03)00321-8).

Details: Homo sapiens; pH 6.6; 25 °C; GdnHCl; Fluorescence; N-(2-acetamido)-iminodiacetic acid 20 mM; NaCl 100 mM; reversible: yes

For “Fibroblast growth factor 1 wild type (sequence not shown)”, the denaturant m value was 4.52 kcal/mol/M, the “denaturant midpoint (higher = more stable)” value was 1.11 M and the unfolding free energy was 5.04 kcal/mol.
